Laboratory results: the supplement of paper PMC6206098
± gives the uncertainty stated by the source. Shown are siRNA guide strands that differ only in the seed, positions 2 to 7.

Experiments:
[1] = test system: 3LL; test: cell viability relative to siNT1 control; higher = less toxic; conditions: concentration: 10 nM; 96 h; Mus musculus;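 note: Luminescence-based viability of cells reverse transfected in 384-well plates with lipid-complexed siRNAs built on a non-toxic 19mer backbone whose passenger strand carries 2′-O-methyl groups at positions 1 and 2, triplicates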
[2] = test system: M565; test: cell viability relative to lipid-only control; HeyA8 human ovarian and H460 human lung cancer; M565 mouse liver and 3LL mouse lung cancer; siNT1 is a non-toxic control siRNA; higher = less toxic; conditions: concentration: 10 nM; 96 h; Mus musculus
[3] = test system: HeyA8; test: as above; conditions: concentration: 10 nM; 96 h; Homo sapiens
[4] = test system: H460; test: as above; conditions: concentration: 10 nM; 96 h; Homo sapiens
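Throughout, for cell viability relative to lipid-only control: reverse lipid transfection in 384-well plates, in triplicate, of duplexes on a non-toxic 19mer backbone with passenger strand 2′-O-methylated at positions 1 and 2, luminescence viability read-out.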

UUCGGGCACAUGUAAACCAAA
cell viability [1]: 2.45 ± 0.1% | cell viability [2]: 15.4 ± 1.4% | cell viability [3]: 8.64 ± 1.6% | cell viability [4]: 12.3 ± 1.6%

UAGAGCAACAUGUAAACCAAA
cell viability [1]: 44.5 ± 5.7% | cell viability [2]: 63.5 ± 6.2% | cell viability [3]: 93.7 ± 13% | cell viability [4]: 70.4 ± 3.5%

UAGAAGCACAUGUAAACCAAA
cell viability [1]: 9.75 ± 4.1% | cell viability [2]: 18.9 ± 2.8% | cell viability [3]: 41.9 ± 1.1% | cell viability [4]: 47.5 ± 4%

UUUUAUUACAUGUAAACCAAA
cell viability [1]: 91.6 ± 11% | cell viability [2]: 101 ± 12% | cell viability [3]: 82.9 ± 3.2% | cell viability [4]: 67.2 ± 5.1%

UGGCAUGACAUGUAAACCAAA
cell viability [1]: 52.4 ± 3% | cell viability [2]: 21.3 ± 5.1% | cell viability [3]: 6.58 ± 1.2% | cell viability [4]: 36.1 ± 9%

UACCGCAACAUGUAAACCAAA
cell viability [1]: 96.9 ± 2.7% | cell viability [2]: 61.5 ± 5% | cell viability [3]: 98.3 ± 7.1% | cell viability [4]: 95.2 ± 17%

UUGACACACAUGUAAACCAAA
cell viability [1]: 47.8 ± 2.7% | cell viability [2]: 39.8 ± 13% | cell viability [3]: 76.1 ± 8% | cell viability [4]: 63.9 ± 4.3%

UUGUGGGACAUGUAAACCAAA
cell viability [1]: 34.6 ± 6.6% | cell viability [2]: 24.7 ± 7.2% | cell viability [3]: 13.1 ± 0.75% | cell viability [4]: 46 ± 4.1%

UAAGAAAACAUGUAAACCAAA
cell viability [1]: 79.3 ± 5% | cell viability [2]: 79.3 ± 4.2% | cell viability [3]: 87.7 ± 11% | cell viability [4]: 82.3 ± 20%

UAACAACACAUGUAAACCAAA
cell viability [1]: 86.7 ± 11% | cell viability [2]: 82.7 ± 8.8% | cell viability [3]: 82.3 ± 14% | cell viability [4]: 54.4 ± 4.5%

UGAUCGGACAUGUAAACCAAA
cell viability [1]: 13.2 ± 0.93% | cell viability [2]: 15 ± 0.4% | cell viability [3]: 77.5 ± 9% | cell viability [4]: 62.1 ± 11%

UCUGUGUACAUGUAAACCAAA
cell viability [1]: 74.4 ± 12% | cell viability [2]: 12.7 ± 4.9% | cell viability [3]: 62 ± 3.6% | cell viability [4]: 48.6 ± 7%

UUGCACAACAUGUAAACCAAA
cell viability [1]: 66.4 ± 5% | cell viability [2]: 65.9 ± 17% | cell viability [3]: 80.6 ± 3.9% | cell viability [4]: 46.6 ± 4.6%

UUCACGGACAUGUAAACCAAA
cell viability [1]: 90.9 ± 23% | cell viability [2]: 41.7 ± 7.5% | cell viability [3]: 83.5 ± 11% | cell viability [4]: 33.1 ± 3%

UAAAUCUACAUGUAAACCAAA
cell viability [1]: 108 ± 16% | cell viability [2]: 109 ± 17% | cell viability [3]: 93.1 ± 4.8% | cell viability [4]: 78.5 ± 15%

UUGGCGUACAUGUAAACCAAA
cell viability [1]: 69.3 ± 13% | cell viability [2]: 67.8 ± 9.1% | cell viability [3]: 74.1 ± 4.9% | cell viability [4]: 99.9 ± 10%

UGGGUCGACAUGUAAACCAAA
cell viability [1]: 58.9 ± 8.7% | cell viability [2]: 36.7 ± 0.67% | cell viability [3]: 24.6 ± 1.5% | cell viability [4]: 18.1 ± 1.1%

UUGAGUCACAUGUAAACCAAA
cell viability [1]: 45.8 ± 8.3% | cell viability [2]: 12.1 ± 0.97% | cell viability [3]: 68.9 ± 6% | cell viability [4]: 58.7 ± 6.1%

UAAAACUACAUGUAAACCAAA
cell viability [1]: 107 ± 8.3% | cell viability [2]: 106 ± 18% | cell viability [3]: 104 ± 7.5% | cell viability [4]: 87.6 ± 8.6%

UUUUUGAACAUGUAAACCAAA
cell viability [1]: 94.9 ± 8.9% | cell viability [2]: 103 ± 20% | cell viability [3]: 101 ± 11% | cell viability [4]: 70.7 ± 6.7%

UCCAGGCACAUGUAAACCAAA
cell viability [1]: 54.3 ± 12% | cell viability [2]: 19 ± 4.3% | cell viability [3]: 22.5 ± 2.8% | cell viability [4]: 25.7 ± 3.5%

UAAUUGGACAUGUAAACCAAA
cell viability [1]: 96.7 ± 11% | cell viability [2]: 71.3 ± 10% | cell viability [3]: 72.3 ± 4.6% | cell viability [4]: 70.2 ± 6.8%

UUAAUCGACAUGUAAACCAAA
cell viability [1]: 97.3 ± 15% | cell viability [2]: 105 ± 16% | cell viability [3]: 86.6 ± 1.7% | cell viability [4]: 81.1 ± 26%

UGGGUUAACAUGUAAACCAAA
cell viability [1]: 88.7 ± 1.8% | cell viability [2]: 42.5 ± 5% | cell viability [3]: 22 ± 5.3% | cell viability [4]: 54.8 ± 11%

UCUUUCUACAUGUAAACCAAA
cell viability [1]: 85.4 ± 13% | cell viability [2]: 80.2 ± 16% | cell viability [3]: 46.1 ± 4.6% | cell viability [4]: 59.3 ± 2.6%

UCGCAGAACAUGUAAACCAAA
cell viability [1]: 98.3 ± 20% | cell viability [2]: 63.1 ± 12% | cell viability [3]: 86.1 ± 11% | cell viability [4]: 72.5 ± 12%

UAUAGAAACAUGUAAACCAAA
cell viability [1]: 110 ± 9.6% | cell viability [2]: 93.7 ± 6.6% | cell viability [3]: 106 ± 3% | cell viability [4]: 82.4 ± 20%

UGUGAACACAUGUAAACCAAA
cell viability [1]: 69 ± 6.3% | cell viability [2]: 22.3 ± 1.9% | cell viability [3]: 46.5 ± 6.9% | cell viability [4]: 46.5 ± 3.4%

UCGAUCCACAUGUAAACCAAA
cell viability [1]: 67.1 ± 6.5% | cell viability [2]: 25.9 ± 5.7% | cell viability [3]: 63.5 ± 1.6% | cell viability [4]: 67.8 ± 9.4%

UUUGCCUACAUGUAAACCAAA
cell viability [1]: 23.4 ± 1.8% | cell viability [2]: 30 ± 4.9% | cell viability [3]: 72.7 ± 5% | cell viability [4]: 55.1 ± 5.6%
